Measured values as given in the supplement of paper PMC8728848.
This is one part of the list.

Key:
Assay in all cases: glycan array binding signal (z-score within array); higher = stronger binding
Details in all cases: glycan notation: IUPAC condensed, linker removed
Fuc(a1-2)Gal = target: Fuc(a1-2)Gal
How it was run: (§1)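 Glycan array binding is given as a within-array Z-score, which can be read as non-binding when negative. The arrays, 3228 of them, came from the Consortium for Functional Glycomics database and were retained only where the protein sequence was available. Z-scores were averaged across arrays of the same protein sequence at different concentrations or buffers and across linkers.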

Fuc(a1-2)Gal(b1-3)GalNAc = target: Fuc(a1-2)Gal(b1-3)GalNAc
How it was run: as §1

[1] = target: Fuc(a1-2)Gal(b1-3)GalNAc(b1-3)Gal
How it was run: as §1

[2] = target: Fuc(a1-2)Gal(b1-3)GalNAc(b1-3)Gal(a1-4)Gal(b1-4)Glc
How it was run: as §1

[3] = target: Fuc(a1-2)Gal(b1-3)GalNAc(b1-4)[Neu5Ac(a2-3)]Gal(b1-4)Glc
How it was run: as §1

Fuc(a1-2)Gal(b1-3)GlcNAc = target: Fuc(a1-2)Gal(b1-3)GlcNAc
How it was run: as §1

[4] = target: Fuc(a1-2)Gal(b1-3)GlcNAc(b1-3)Gal(b1-4)Glc
How it was run: as §1

[5] = target: Fuc(a1-2)Gal(b1-3)[Fuc(a1-4)]GlcNAc
How it was run: as §1

Fuc(a1-2)Gal(b1-4)Glc = target: Fuc(a1-2)Gal(b1-4)Glc
How it was run: as §1

Fuc(a1-2)Gal(b1-4)GlcNAc = target: Fuc(a1-2)Gal(b1-4)GlcNAc
How it was run: as §1

[6] = target: Fuc(a1-2)Gal(b1-4)GlcNAc(b1-3)Gal(b1-4)GlcNAc
How it was run: as §1

[7] = target: Fuc(a1-2)Gal(b1-4)GlcNAc(b1-3)Gal(b1-4)GlcNAc(b1-3)Gal(b1-4)GlcNAc
How it was run: as §1

[8] = target: Fuc(a1-2)Gal(b1-4)[Fuc(a1-3)]GlcNAc
How it was run: as §1

[9] = target: Fuc(a1-2)Gal(b1-4)[Fuc(a1-3)]GlcNAc(b1-3)Gal(b1-4)[Fuc(a1-3)]GlcNAc
How it was run: as §1

[10] = target: Fuc(a1-2)Gal(b1-4)[Fuc(a1-3)]GlcNAc(b1-3)Gal(b1-4)[Fuc(a1-3)]GlcNAc(b1-3)Gal(b1-4)[Fuc(a1-3)]GlcNAc
How it was run: as §1

Fuc(a1-2)GlcNAc = target: Fuc(a1-2)GlcNAc
How it was run: as §1

Fuc(a1-2)[Gal(a1-3)]Gal = target: Fuc(a1-2)[Gal(a1-3)]Gal
How it was run: as §1

[11] = target: Fuc(a1-2)[Gal(a1-3)]Gal(b1-3)GlcNAc
How it was run: as §1

[12] = target: Fuc(a1-2)[Gal(a1-3)]Gal(b1-4)Glc
How it was run: as §1

[13] = target: Fuc(a1-2)[Gal(a1-3)]Gal(b1-4)GlcNAc
How it was run: as §1

[14] = target: Fuc(a1-2)[Gal(a1-3)]Gal(b1-4)[Fuc(a1-3)]GlcNAc
How it was run: as §1

[15] = target: Fuc(a1-2)[Gal(a1-4)]Gal(b1-4)GlcNAc
How it was run: as §1

[16] = target: Fuc(a1-2)[GalNAc(a1-3)]Gal
How it was run: as §1

[17] = target: Fuc(a1-2)[GalNAc(a1-3)]Gal(b1-3)GlcNAc
How it was run: as §1

[18] = target: Fuc(a1-2)[GalNAc(a1-3)]Gal(b1-4)Glc
How it was run: as §1

[19] = target: Fuc(a1-2)[GalNAc(a1-3)]Gal(b1-4)GlcNAc
How it was run: as §1

[20] = target: Fuc(a1-2)[GalNAc(a1-3)]Gal(b1-4)[Fuc(a1-3)]GlcNAc
How it was run: as §1

[21] = target: Fuc(a1-2)[GalNAc(a1-4)]Gal(b1-4)GlcNAc
How it was run: as §1

[22] = target: Fuc(a1-2)[GalNAc(b1-3)]Gal
How it was run: as §1

Fuc(a1-3)GlcNAc = target: Fuc(a1-3)GlcNAc
How it was run: as §1

[23] = target: Fuc(a1-3)[Gal(b1-4)]GlcNAc
How it was run: as §1

[24] = target: Fuc(a1-3)[Gal(b1-4)]GlcNAc(b1-4)Gal(b1-4)[Fuc(a1-3)]GlcNAc
How it was run: as §1

[25] = target: Fuc(a1-3)[Gal(b1-4)]GlcNAc(b1-4)Gal(b1-4)[Fuc(a1-3)]GlcNAc(b1-4)Gal(b1-4)[Fuc(a1-3)]GlcNAc
How it was run: as §1

[26] = target: Fuc(a1-3)[Gal3S(b1-4)]GlcNAc
How it was run: as §1

[27] = target: Fuc(a1-3)[GalNAc(b1-4)]GlcNAc
How it was run: as §1

Fuc(a1-4)GlcNAc = target: Fuc(a1-4)GlcNAc
How it was run: as §1

Fuc(b1-3)GlcNAc = target: Fuc(b1-3)GlcNAc
How it was run: as §1

Gal(a1-2)Gal = target: Gal(a1-2)Gal
How it was run: as §1

Gal(a1-3)Gal = target: Gal(a1-3)Gal
How it was run: as §1

Gal(a1-3)Gal(b1-3)GlcNAc = target: Gal(a1-3)Gal(b1-3)GlcNAc
How it was run: as §1

Gal(a1-3)Gal(b1-4)Glc = target: Gal(a1-3)Gal(b1-4)Glc
How it was run: as §1

Gal(a1-3)Gal(b1-4)GlcNAc = target: Gal(a1-3)Gal(b1-4)GlcNAc
How it was run: as §1

[28] = target: Gal(a1-3)Gal(b1-4)[Fuc(a1-3)]GlcNAc
How it was run: as §1

Gal(a1-3)GalNAc = target: Gal(a1-3)GalNAc
How it was run: as §1

[29] = target: Gal(a1-3)[Gal(a1-4)]Gal(b1-4)GlcNAc
How it was run: as §1

Gal(a1-4)Gal(b1-4)Glc = target: Gal(a1-4)Gal(b1-4)Glc
How it was run: as §1

Gal(a1-4)Gal(b1-4)GlcNAc = target: Gal(a1-4)Gal(b1-4)GlcNAc
How it was run: as §1

Gal(a1-4)GlcNAc = target: Gal(a1-4)GlcNAc
How it was run: as §1

Gal(a1-6)Glc = target: Gal(a1-6)Glc
How it was run: as §1

Gal(b1-2)Gal = target: Gal(b1-2)Gal
How it was run: as §1

Gal(b1-3)Gal = target: Gal(b1-3)Gal
How it was run: as §1

Gal(b1-3)GalNAc = target: Gal(b1-3)GalNAc
How it was run: as §1

[30] = target: Gal(b1-3)GalNAc(b1-3)Gal(a1-4)Gal(b1-4)Glc
How it was run: as §1

[31] = target: Gal(b1-3)GalNAc(b1-4)Gal(b1-4)Glc
How it was run: as §1

[32] = target: Gal(b1-3)GalNAc(b1-4)[Neu5Ac(a2-3)]Gal(b1-4)Glc
How it was run: as §1

Gal(b1-3)GlcNAc = target: Gal(b1-3)GlcNAc
How it was run: as §1

[33] = target: Gal(b1-3)GlcNAc(b1-3)Gal(b1-4)Glc
How it was run: as §1

[34] = target: Gal(b1-3)GlcNAc(b1-3)Gal(b1-4)GlcNAc
How it was run: as §1

[35] = target: Gal(b1-3)[Fuc(a1-4)]GlcNAc
How it was run: as §1

[36] = target: Gal(b1-3)[Fuc(a1-4)]GlcNAc(b1-3)Gal(b1-4)GlcNAc
How it was run: as §1

B1: CLEC-6 (Homo sapiens), Q8WXI8 (protein)
chain: MGLEKPQSKLEGGMHPQLIPSVIAVVFILLLSVCFIASCLVTHHNFSRCKRGTGVHKLEHHAKLKCIKEKSELKSAEGSTWNCCPIDWRAFQSNCYFPLTDNKTWAESERNCSGMGAHLMTISTEAEQNFIIQFLDRRLSYFLGLRDENAKGQWRWVDQTPFNPRRVFWHKNEPDNSQGENCVVLVYNQDKWAWNDVPCNFEASRICKIPGTTLN
What does the source list for B1?
glycan array binding signal (z-score) (Fuc(a1-2)Gal): -0.369; glycan array binding signal (z-score) (Fuc(a1-2)Gal(b1-3)GalNAc): -0.174; glycan array binding signal (z-score) [1]: 6.22; glycan array binding signal (z-score) [2]: -0.189; glycan array binding signal (z-score) [3]: 0.308; glycan array binding signal (z-score) (Fuc(a1-2)Gal(b1-3)GlcNAc): -0.196; glycan array binding signal (z-score) [4]: -0.203; glycan array binding signal (z-score) [5]: -0.052; glycan array binding signal (z-score) (Fuc(a1-2)Gal(b1-4)Glc): -0.054; glycan array binding signal (z-score) (Fuc(a1-2)Gal(b1-4)GlcNAc): -0.048; glycan array binding signal (z-score) [6]: -0.176; glycan array binding signal (z-score) [7]: -0.295; glycan array binding signal (z-score) [8]: -0.16; glycan array binding signal (z-score) [9]: -0.303; glycan array binding signal (z-score) [10]: 0.12; glycan array binding signal (z-score) (Fuc(a1-2)GlcNAc): 0.059; glycan array binding signal (z-score) (Fuc(a1-2)[Gal(a1-3)]Gal): -0.319; glycan array binding signal (z-score) [11]: -0.255; glycan array binding signal (z-score) [12]: -0.282; glycan array binding signal (z-score) [13]: -0.117; glycan array binding signal (z-score) [14]: -0.276; glycan array binding signal (z-score) [15]: -0.193; glycan array binding signal (z-score) [16]: 0.26; glycan array binding signal (z-score) [17]: -0.119; glycan array binding signal (z-score) [18]: -0.052; glycan array binding signal (z-score) [19]: -0.239; glycan array binding signal (z-score) [20]: -0.102; glycan array binding signal (z-score) [21]: 0.035; glycan array binding signal (z-score) [22]: -0.091; glycan array binding signal (z-score) (Fuc(a1-3)GlcNAc): -0.325; glycan array binding signal (z-score) [23]: -0.217; glycan array binding signal (z-score) [24]: -0.06; glycan array binding signal (z-score) [25]: -0.329; glycan array binding signal (z-score) [26]: -0.221; glycan array binding signal (z-score) [27]: -0.053; glycan array binding signal (z-score) (Fuc(a1-4)GlcNAc): -0.155; glycan array binding signal (z-score) (Fuc(b1-3)GlcNAc): -0.296; glycan array binding signal (z-score) (Gal(a1-2)Gal): -0.304; glycan array binding signal (z-score) (Gal(a1-3)Gal): -0.093; glycan array binding signal (z-score) (Gal(a1-3)Gal(b1-3)GlcNAc): -0.286; glycan array binding signal (z-score) (Gal(a1-3)Gal(b1-4)Glc): -0.283; glycan array binding signal (z-score) (Gal(a1-3)Gal(b1-4)GlcNAc): -0.191; glycan array binding signal (z-score) [28]: -0.267; glycan array binding signal (z-score) (Gal(a1-3)GalNAc): -0.047; glycan array binding signal (z-score) [29]: -0.268; glycan array binding signal (z-score) (Gal(a1-4)Gal(b1-4)Glc): -0.259; glycan array binding signal (z-score) (Gal(a1-4)Gal(b1-4)GlcNAc): 0.172; glycan array binding signal (z-score) (Gal(a1-4)GlcNAc): -0.055; glycan array binding signal (z-score) (Gal(a1-6)Glc): -0.006; glycan array binding signal (z-score) (Gal(b1-2)Gal): -0.038; glycan array binding signal (z-score) (Gal(b1-3)Gal): -0.161; glycan array binding signal (z-score) (Gal(b1-3)GalNAc): -0.284; glycan array binding signal (z-score) [30]: -0.16; glycan array binding signal (z-score) [31]: -0.328; glycan array binding signal (z-score) [32]: -0.32; glycan array binding signal (z-score) (Gal(b1-3)GlcNAc): -0.026; glycan array binding signal (z-score) [33]: -0.289; glycan array binding signal (z-score) [34]: -0.45; glycan array binding signal (z-score) [35]: -0.206; glycan array binding signal (z-score) [36]: -0.269
